Results on ten molecules are retold here after the supplement of paper PMC8047034.

Structures can show the parent of a compound that is named as a salt. The list shows a part of the results. Many values rest on one well or one pass, so single values are uncertain.

The experiment deals with Ov4Carbo. The experiment can be described thus: log2 surviving fraction (library drug vs vehicle, or drug + carboplatin vs carboplatin alone; relative to plate median); ovarian cancer lines: OVCAR4 is platinum-sensitive and Ov4Carbo platinum-resistant; higher = more cell survival. To be noted: library drug concentration 10 µM; 7 days; carboplatin co-treatment 0 µM.
Turning to `N=C(N)N` [Guanidine HCl], the log2 surviving fraction was -0.759.
For `C[C@@H]1O[C@@H]1P(=O)(O)O` [Fosfomycin Tromethamine] the value was -0.77; for `CC[C@H]1OC(=O)[C@H](C)[C@@H](O[C@H]2C[C@@](C)(OC)[C@@H](O)[C@H](C)O2)[C@H](C)[C@@H](O[C@@H]2O[C@H](C)C[C@H](N(C)C)[C@H]2O)[C@](C)(O)C[C@@H](C)[C@@H]2N[C@@H](COCCOC)O[C@H]([C@H]2C)[C@]1(C)O` [Dirithromycin], -0.0802.
For `OC[C@@H](O)[C@@H](O)[C@H](O)[C@H](O)CO` [D-Mannitol (Osmitrol)] the value was -0.039.
For the molecule `CCCCNC(=O)NS(=O)(=O)c1ccc(C)cc1` [Tolbutamide], the log2 surviving fraction came to 1.08.
For `CC(C)[N+]1(C)[C@@H]2CC[C@H]1C[C@@H](OC(=O)C(CO)c1ccccc1)C2` (stereo not given in full) [Ipratropium bromide] the value was 0.35; for `CN1C2CCC1CC(OC(=O)C(O)c1ccccc1)C2` (stereo not given) [Homatropine Bromide], 0.746.
For `Cc1cc(C(C#N)c2ccc(Cl)cc2)c(Cl)cc1NC(=O)c1cc(I)cc(I)c1O` (stereo not given) [Closantel Sodium] the value was 0.191; for `C=C[C@]1(C)C[C@@H](OC(=O)CS[C@@H]2C[C@H]3CC[C@@H](C2)N3C)[C@]2(C)[C@H](C)CC[C@]3(CCC(=O)[C@H]32)[C@@H](C)[C@@H]1O` [Retapamulin], -2.
For `CC(=O)O[C@@]12CO[C@@H]1C[C@@H](O)[C@@]1(C)C(=O)[C@H](O)C3=C(C)[C@@H](O)C[C@@](O)([C@@H](OC(=O)c4ccccc4)[C@H]21)C3(C)C` [10-DAB (10-Deacetylbaccatin)] the value was -4.07.
